# PubChem BioAssay AID434955 (Southern Research Specialized Biocontainment Screening …, 2010)
# The list shows a part of the results. Shown are side measurements of this screen, not its main read-out; they come without a call. Most of these compounds were active or inconclusive in the main read-out, so they are no random draw.
# Assay: beta-lactam sensitization of Mtb H37Rv, H37Rv (AID 434955);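 further: growth measured after seven days incubation then overnight dye step; 0% = bacteria only wells and 100% = bacteria with antibiotic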
# Conditions: M. tuberculosis H37Rv growth with meropenem, percent inhibition; measured here: primary screen without meropenem; at 25 µM
row,SMILES,inhibition [%]
1,COC(=O)c1c(C(=O)OC)c(C)n(Cc2ccco2)c1C,3.09
2,O=C(Nc1ccccc1Br)c1cccc2ccccc12,48.6
3,O=C(Nc1cccc(C(F)(F)F)c1)C(Sc1cccc[n+]1[O-])c1ccccc1 (centres undefined),0.11
4,Cc1[nH]c2ccccc2c1C(=O)C(=O)NCCc1ccc(S(N)(=O)=O)cc1,-0.68
5,O=C(/C=C/c1ccc(OC2CSC2)cc1)c1ccccc1,94.6
6,Cc1ccc(NC(=O)c2nc[nH]c2C(=O)N[C@H](C)c2ccccc2)cc1,90.7
7,COC(=O)c1sccc1S(=O)(=O)NCc1ccc(S(N)(=O)=O)cc1,-5.33
8,O=C(Nc1ccnn1C1CCN(C/C=C/c2ccccc2)CC1)c1ccccc1,2.69
9,COc1ccc2nc(/N=C/c3c(C)[nH]n(-c4ccc(C)cc4C)c3=O)sc2c1,12
10,CC(=O)Nc1cccc(-c2nnc(SCC(=O)n3c4c(c5ccccc53)CCCC4)n2C)c1,-4.77
11,CCOc1ccc2nc(N(CCN(C)C)C(=O)/C=C/c3cccs3)sc2c1,52.3
12,COc1cccc(-c2ccc(-c3noc(-c4ccccc4F)n3)c(OC)n2)c1,25.2
13,O=C(C[n+]1cc(Br)cc2ccccc21)c1ccc(F)cc1,0.44
14,Cn1ccnc1C(=O)Cc1ccc([N+](=O)[O-])cc1,8.78
15,CCCCN(CC)CCNC(=S)Nc1ccc2nc(N3CCN(C)CC3)cc(C)c2c1,5.42
16,CCCc1nc2c(C)ccc(C)c2c(N)c1CC,3.33
17,CCOC(=O)Cn1c(CN(C)Cc2ccccc2)nc2c1c(=O)n(C)c(=O)n2C,0.34
18,CN(C(=O)CSc1nncn1C)C1CCCN(Cc2ccccc2F)C1 (centres undefined),-12.1
19,Cn1c(=O)c2c(nc(Sc3n[nH]c(N)n3)n2Cc2ccccc2Cl)n(C)c1=O,-5.63
20,Cc1ccc2c(c1)-c1c(ssc1=S)C(C)(C)N2C(=O)CSC1=NCCS1,-9.44
21,CCCn1cc(S(=O)(=O)c2ccccc2)c(=O)c2cc(OCC)ccc21,6.09
22,Cc1noc(C)c1CSCC(=O)N1CCN(c2ccc(F)cc2)CC1,-6.3
23,Cc1ccc(S(=O)(=O)N(C)Cc2ccc(C(=O)N/N=C/c3ccc(OC(F)F)cc3)cc2)cc1,-2.57
24,COc1ccccc1OCC(=O)Nc1ccccc1C(=O)N1CCCCC1,0.56
25,COc1cc(/C=N/NC(=O)CSCc2ccc([N+](=O)[O-])cc2)cc(OC)c1OC,2.13
26,CCOC(=O)C(C)N1C(=O)S/C(=C\c2ccc(-c3ccccc3C(=O)O)o2)C1=O (centres undefined),-6.08

row,SMILES,inhibition [%]
1,Nc1nc2n(n1)C(c1ccccc1)CC(c1ccc(F)cc1)N2 (centres undefined),-6.96
2,CCOC(=O)N1CCN(C(=O)c2oc3ccc(S(=O)(=O)N4CCOCC4)cc3c2C)CC1,1.42
3,COc1cc(S(=O)(=O)Nc2ccccn2)ccc1F,-6.24
4,CS(=O)(=O)c1ccc2nc(NC(=O)CN3CCN(Cc4ccccc4)CC3)sc2c1,5.12
5,O=C(NC1(C(F)(F)F)C(=O)Nc2c1c(=O)[nH]c(=O)n2Cc1ccccc1)c1ccc(Cl)cc1Cl (centres undefined),8.02
6,CC(C)c1nc(SCC(=O)N2CCCCCC2)c2c(=O)n(C)c(=O)n(C)c2n1,-0.23
7,O=C(O)C(Cc1ccccc1)N1C(=O)/C(=C/c2cccc3ccccc23)SC1=S (centres undefined),-0.88
8,COc1ccccc1C1c2ccc3ccccc3c2Oc2ncn(CCN(C)C)c(=N)c21 (centres undefined),93.8
9,CCc1cc(CNC(=O)c2cc(COc3ccc(C)nc3)on2)on1,1.48
10,COc1ccc(C2c3[nH]c4ccccc4c3C[C@H]3C(=O)N(CC(C)C)CC(=O)N23)c(OC)c1 (some centres undefined),5.75
11,CCC(=O)NC(c1ccccc1)c1c(O)ccc2ccccc12 (centres undefined),4.72
12,Cc1cccc(NC(=O)c2ccc(S(=O)(=O)N3CCCCC3C)cc2)n1 (centres undefined),8.6
13,COc1ccccc1NC(=O)c1ccc(Br)c(S(=O)(=O)N2CCCC2)c1,-4.57
14,Cc1ccc(CN2CCC(n3nccc3NC(=O)c3ccc4c(c3)OCO4)CC2)o1,4.22
15,CCn1ncc(Br)c1C(=O)Nc1cc([N+](=O)[O-])ccc1C,10.6
16,COc1ccc(C(=O)NCCCCCCNC(=O)c2ccc(OC)cc2)cc1,12.7
17,COc1ccc(/C=N/NC(=O)c2nn(C)cc2Br)cc1CSCc1ccco1,7.4
18,CN(C)S(=O)(=O)N1CCC(Oc2cccc(C(=O)NCCC3=CCCCC3)c2)CC1,0.43
19,CCOc1ccc(CCNC(=O)CCc2nnc3ccc(N4CCCC4)nn23)cc1OCC,-15.3
20,O=C(NCC1CCCO1)c1ccc2c(c1)ncn2-c1cccc(F)c1 (centres undefined),-10.6
21,CCC(=O)Nc1c2c(nn1-c1ccc(C)cc1)CS(=O)(=O)C2,-9.62
22,O=c1cc(C(F)(F)F)nc(SCc2cccnc2)[nH]1,-9.69
23,COc1cc(OC)cc(-n2nc(C(=O)N3CC(C)CC(C)C3)c3ccccc3c2=O)c1 (centres undefined),-3.54
24,CCCS(=O)(=O)Nc1cc(C(F)(F)F)ccc1OCCOC,5.08
25,COC(=O)c1ccccc1NC(=O)CN1CCC(C(=O)c2ccc3c(c2)OCCO3)CC1,98.8
26,CCC1CCCCN1C(=O)CSc1nc2ncccc2[nH]1 (centres undefined),-0.97

row,SMILES,inhibition [%]
1,CCCc1nc2n[nH]c(N)c2c2c1COC(C)(C)C2,-3.65
2,CC1(C)Cc2c(sc(NC(=O)C(=O)N3CCCC3)c2C(=O)O)CO1,1.82
3,CCCCCCN=C(CC)c1c(O)n(CCCC)c(=O)[nH]c1=O,81.2
4,O=C1C=C2C=C[C@@H]3CC2(O1)[C@H]1CCCCN31,1.11
5,COc1ccccc1OCC(=O)NNC(=O)C(=O)N1CCCC1,-9.5
6,CCCc1nn2c(=O)cc(COc3cccc(NC(=O)c4ccco4)c3)nc2s1,-1.24
7,O=C(CSc1nnc2c3ccccc3c3ccccc3c2n1)Nc1ccccc1,5.58
8,CSc1ccccc1OCc1cc(C(=O)N2CCNC(=O)C2)no1,-3.48
9,COCCN1C=C(C(=O)OC)C(c2ccccc2C(F)(F)F)C(C(=O)OC)=C1,39.1
10,CC(C)(C)NC(=O)CSc1nc2ccc(NC(=O)CSc3nnc(N)s3)cc2s1,-4.51
11,CC(=O)c1ccc(OCc2ccc(Oc3c(Cl)cccc3[N+](=O)[O-])cc2)cc1,17.9
12,CSc1ccccc1OCc1cc(C(=O)NCCn2ccnc2C)no1,-7.72
13,CCn1c(SCc2ccccc2)nnc1-c1ccc(S(=O)(=O)N2CCCCC2)cc1,-10.4
14,Cc1cccc(C)c1NC(=O)NC1CCc2ccccc21 (centres undefined),5.5
15,Cc1cc(C)cc(C(=O)OCC(=O)Nc2cccc(S(=O)(=O)NC3=NCCCCC3)c2)c1,7.45
16,O=C(COc1ccc(/C=N/NC(=O)c2cccnc2)cc1)Nc1ccccc1,0.52
17,O=C(O)/C=C\C(=O)Nc1ccccc1C#Cc1ccc(Br)cc1,-3.09
18,COc1ccc(OC)c(NC(=O)CS(=O)(=O)c2ccccc2)c1,23.8
19,O=C(O)COc1ccc(/C=N/Nc2nc(Nc3ccccc3)nc(N3CCCCC3)n2)cc1,23.6
20,CN(C)c1ccc(/C=N/NC(N)=S)cc1[N+](=O)[O-],2.95
21,CC(C)[C@H](NC(=O)C1CCN(C(=O)[C@H](Cc2ccccc2)NC(=O)OC(C)(C)C)CC1)C(=O)O,1.16
22,Nc1ccc(-c2nc(-c3ccccc3)nc3ccccc23)cc1,3.29
23,COc1ccc(C(=O)Nc2ccccc2C(=O)NCc2cccnc2)cc1,0.14
24,CCNC(=O)CCn1nc(-c2ccc(Cl)cc2)c2ccccc2c1=O,41.8
25,COc1ccc(C(=O)N(C)Cc2ccon2)cc1OC1CCN(C(C)C)CC1,-1.08
26,O=C(CSc1nnc(CNC(=O)c2ccc(F)cc2)o1)NCCc1ccccc1,1.96

row,SMILES,inhibition [%]
1,CCN(Cc1ccccc1)S(=O)(=O)c1cn(C)cn1,-14.4
2,Cc1c2c(nc3c(C(=O)NC4CCCC4)cnn13)CCCC2,16
3,COc1ccc(CCNC(=O)c2ccc(N3CCCC3=O)cc2)cc1OC,-0.65
4,CC(C)N(Cc1ccccc1)C(=O)c1ccc2c(c1)OCO2,-2.55
5,COc1ccccc1NC(=O)CCn1cccc1,-5.04
6,CCCCn1c(N)c(-c2nc3ccccc3s2)c2c([N+](=O)[O-])nn(CC)c(=O)c21,15.8
7,CC(=O)c1ccc(OCCCC(=O)OCC(=O)N2CCN(c3ccccc3)CC2)cc1,37.1
8,COC(=O)c1cc(NC(=O)C2COc3ccccc3O2)cc(C(=O)OC)c1 (centres undefined),-0.63
9,CCOC(=O)C1CCN(S(=O)(=O)c2ccc(NC(=O)c3ccco3)cc2)CC1,-9.46
10,CCOC(=O)CSc1nc2c(c(=O)n(C)c(=O)n2C)n1Cc1ccccc1F,-8.75
11,CSc1nc(SC)c2c3c(oc2n1)COC(C)(C)C3,5.16
12,O=C(Nc1cc(C(F)(F)F)ccc1N1CCOCC1)c1cccnc1,-0.34
13,CC1(C)CC(=O)C2=C(C1)NC(=O)C21C(C(=O)OC(C)(C)C)=C(N)Oc2ccc(Br)cc21 (centres undefined),1.24
14,COc1ccc(OC)c(NC(=O)CSC2=C(C#N)C(c3ccco3)C3=C(CCCC3=O)N2)c1 (centres undefined),27.5
15,CCOc1ccc(-n2nc(C(=O)N3CCN(CC)CC3)c3ccccc3c2=O)cc1,-6.07
16,CC(=O)N1CCc2c(sc(NC(=O)CCS(=O)(=O)c3ccccc3)c2C(N)=O)C1,-1.86
17,COc1cc(NC(=O)CN(c2ccc(C)cc2)S(=O)(=O)c2c(C)nn(C)c2C)cc(OC)c1,-9.06
18,CCn1nc(C)c(NC(=O)c2cc(Br)ccc2Cl)c1C,1.01
19,CCOc1ccccc1/C=C/c1onc(C)c1S(=O)(=O)N1CCC(C(=O)NC)CC1,-13.2
20,O=C(Nc1cccc(-c2nc3ncccc3o2)c1)c1sc2ccccc2c1Cl,5.82
21,CC(C)(O)C#Cc1ccc(CN2CCCC(CNC(=O)c3ccco3)C2)cc1 (centres undefined),-1.07
22,Cn1ncc(Br)c1C(=O)N1CCCC1,-4.55
23,CC(NC(=O)c1ccc(Br)cc1)c1ccc2c(c1)CCCC2 (centres undefined),1.68
24,CCOC(=O)c1cnc(NCc2ccccc2)nc1C,16.2
25,CS(=O)(=O)N(CC(=O)Nc1ccccc1C(=O)NCc1ccco1)c1ccc2c(c1)OCCO2,-8.4
26,Cc1cccc(NC(=O)c2ccc(C3SCC(=O)N3CCc3ccccc3)cc2)c1C (centres undefined),2.16
